According to paper PMC12136788:
Some of the results follow.

T1: UNK ZnF1-3 (human, UniProt Q9C0B0 31-174)
T1 sequence: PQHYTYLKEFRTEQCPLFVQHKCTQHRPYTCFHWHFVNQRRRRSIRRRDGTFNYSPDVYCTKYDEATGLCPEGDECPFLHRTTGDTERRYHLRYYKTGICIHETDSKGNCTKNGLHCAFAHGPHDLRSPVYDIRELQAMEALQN

B1: chr16:18799448:18799449:-_ENSG00000134419_ENST00000563390|perfect_dup|FALSE|FALSE (ssRNA)
RNA: GGGAGUUCUACAGUCCGACGAUCCCUGCCUGUGAGGUUCACAACAAUUUUCCCAGCUCUGUGGUCAUCAAUGAUUUCAAAUUCGCCAAUGUAACCAUGCUUCAUCAUCACAGUGAGAAACCGGACGAUGACUUUGGAGCACGGCAACAGAGGAUUGAGCAUCA
B2: 31526874_31526994_474_CDS_ENSG00000113360_ENST00000513349|human|control|control (ssRNA)
RNA: GGGAGUUCUACAGUCCGACGAUCAGGUUCAUAUUGAUAUUGCACAGGAGGCUGCUGAGGGUGAAGCAGCCUCAGAUUUUGGGGCCUAAAGGAUGGUGCUGAGGGUCUGGCUCCAUGUCCUCCUCGUCCUCGGGGACACCCUCGCAACAGAGGAUUGAGCAUCA
B3: chr17:49043493:49043494:-_ENSG00000008294_ENST00000510283|hu_hu|motif|central (ssRNA)
RNA: GGGAGUUCUACAGUCCGACGAUCUUUGAUUUGUUCAUAAUAUACUGAAGUUACCUAUAACACUGGUGCAGUAACACAGCGGGUUCCUCUGUAUUGUUAUGGUAGAACGGAUUUUGUAAUAUAAAGUUAACAGGAAAAAAUGCUCAACAGAGGAUUGAGCAUCA
B4: chr3:148802587:148802588:-_ENSG00000071794_ENST00000310053|hu_mus|hu_hu_hu_mus_False|18_108 (ssRNA)
RNA: GGGAGUUCUACAGUCCGACGAUCUCCAACCACAUGACCUCUCAUAGUUCCAAAUAAAACCAAAUCUUGCUCUUCAUCACUCGUUAGGAAGUCAUCUGGAGGAAUAAUGUCUUGGAAUUCAAAACGUGGCAAGAAAGUUGAGUACAACAGAGGAUUGAGCAUCA
B5: 10437954_10438074_480_CDS_ENSMUSG00000027534_ENSMUST00000029047|mouse|control|control (ssRNA)
RNA: GGGAGUUCUACAGUCCGACGAUCAAAUUUAGUCCUAAUGAGAGGACUACCACACAUUGAUGAUGCACUGUCCAUCUGAUCCUGGACAUUCGUCUGCUUAAGACUGCCCACAGCUGAGUCCUCUAACUGGCCUUUGGAAGAGGUCAACAGAGGAUUGAGCAUCA
B6: chr16:46708560:46708561:-_ENSG00000069329_ENST00000568784|perfect_dup|motif|central (ssRNA)
RNA: GGGAGUUCUACAGUCCGACGAUCCAAAAAGUUUAAUAUCCGCUGGGAUUCCAGGUCCAUCUUCACGGUGAGCAAAUAAAGCGGAUCGGUCAAUUAAAGCAAUGAUUAUGUUCUUCACAUUUACAUUCUGGUGUAACUCAGCACCAACAGAGGAUUGAGCAUCA
B7: 25101351_25104063_597_CDS_ENSMUSG00000001833_ENSMUST00000165594|mouse|control|control (ssRNA)
RNA: GGGAGUUCUACAGUCCGACGAUCCUUAACCAGUUUAUUCUCUUCUUCAUCAUCUGUUUCUGGAAAUUCAUAUAUUUUAAUUUUAUGUUCUUGAAUUUCUUUCAUUAUCUGCUUUUUAAACUGUUGGCAUUCCUCUGGUGUAAGCAACAGAGGAUUGAGCAUCA
B8: chr3:19126325:19126326:-_ENSMUSG00000069094_ENSMUST00000091314|mus_hu|FALSE|FALSE (ssRNA)
RNA: GGGAGUUCUACAGUCCGACGAUCGCUUACUAUACAUAAAACAAUUUAAAACAAAUUACAAAAGUGGAAUGUUUGAAGUUUAAAAUUAGUCCUUAUAGUUUGUCCUAGAAAACAUCUGUUCACAUCAAAAGGCCCGUCAAAGGGCAACAGAGGAUUGAGCAUCA
B9: 33171585_33171705_3458_CDS_ENSMUSG00000054280_ENSMUST00000120129|mouse|control|control (ssRNA)
RNA: GGGAGUUCUACAGUCCGACGAUCUUCCCGAGAAGACAGACAAGAGUGCACCAUCUUGACAGAGUCUUGGCACCCAGGAGACACUGAGUCUUUUAAGGAUAAUCCAAAGGUUUUCCUCUUGCCAAACUCAGAAUUUGCUUCAAGCAACAGAGGAUUGAGCAUCA
B10: chr11:2905015:2905016:-_ENSG00000129757_ENST00000380725|hu_mus|motif|central (ssRNA)
RNA: GGGAGUUCUACAGUCCGACGAUCAGUUUUCAGAUUUCCACAAAACCGUGGGCUGCUCUACGCAACCAUCUCCGGUUCCUGCGGCAUGAACGAAAGGUCCCAGCCGAAGCCCAGAGUUCUUCCAUCGUCCGCUGCCCAGAUGCCCAACAGAGGAUUGAGCAUCA
B11: 202626020_202626140_1009_CDS_ENSG00000003393_ENST00000264276|human|control|control (ssRNA)
RNA: GGGAGUUCUACAGUCCGACGAUCGCAUCGUUCUGGGACUGGCUUCAGAUCCUGGGAAGGGAGGCAUUGUACAAGGGCUAAGCUGUGGAAAGCACCACAGGCAACUUGAAGCACCACUCGCCCAGCAAGAUGUUCUACCUUUUGCAACAGAGGAUUGAGCAUCA
B12: chr6:36759976:36759977:-_ENSMUSG00000029838_ENSMUST00000101534|mus_mus|FALSE|FALSE (ssRNA)
RNA: GGGAGUUCUACAGUCCGACGAUCAGCUGGCUGCCUUUGUUGCAAAGUGCGGGCGAGGUUUCUGCAGACUCCAGGUAUCGCUGGCUGAUGCUCCUGCCUGGGCGGCUGCGCUCUGCUCUCCCCCCUUCUGGAUGGAUGACUCAGCAACAGAGGAUUGAGCAUCA
B13: chr2:47387792:47387793:-_ENSG00000143933_ENST00000272298|hu_hu|hu_hu_hu_mus_True|1_18 (ssRNA)
RNA: GGGAGUUCUACAGUCCGACGAUCUAAGGACAAUGACAGUAAGAUAAGGGAAGAAAACAUGGAGGAAUGAAGUCCUAAUUACUAUACAUGCAUAUUUUUUGACAGUAGGGGGGGGGACUUUUACAGAGAUAAGUUACACAAAGACAACAGAGGAUUGAGCAUCA
B14: chr5:21408736:21408737:-_ENSMUSG00000042453_ENSMUST00000161356|mus_hu|mus_mus_mus_hu_False|78_78 (ssRNA)
RNA: GGGAGUUCUACAGUCCGACGAUCGUUGACAGAGUUGUAGAUGGUGGCUUCAUGGAACUGGAACGGGGAGCAGCCAAUGCUGUUAGAAGAGGAAGGAAGGCACUGGGUCUGUACGAGCUGCCAGGAAUCCGAUCUUGCAUCCUUCAACAGAGGAUUGAGCAUCA
B15: chr1:163117127:163117128:-_ENSG00000143248_ENST00000313961|hu_mus|hu_hu_hu_mus_False|78_108 (ssRNA)
RNA: GGGAGUUCUACAGUCCGACGAUCUGCGGGUUAUUAUGUAACUCAACUCACAGGGCAUGAUUUCAUAGCCUGACCAGAUGACUACUUGAUUAGCUCCUUAUAAAAUUCAGAGCGCACAAAGCGGGGCAGAGAAUCCUUCUCCAUCAACAGAGGAUUGAGCAUCA
B16: chr16:92112057:92112058:+_ENSMUSG00000039680_ENSMUST00000047429|mus_hu|FALSE|FALSE (ssRNA)
RNA: GGGAGUUCUACAGUCCGACGAUCCCCUUCACAUUCUUUUAGUUCCUGGGUCAGAGGGUGUUUGACAAUAUUCCCUCUAAUCACAUCUAUAUCUCGAGACAAGUGCUCCACCAUGCUUUCAACAGCUGCGGUGGGUGCAUAAAACAACAGAGGAUUGAGCAUCA
B17: chr1:39494447:39494448:+_ENSG00000168653_ENST00000372967|hu_mus|hu_hu_hu_mus_False|1_8 (ssRNA)
RNA: GGGAGUUCUACAGUCCGACGAUCGCACCGAGCGGCGUUCUUAUAGGGCUGUUCUGCGCUUAGGAACAUAAAGUGCCGGUCCAGGCUGAUGCCCAGCUUUUUCUGUAUGUCAAGGAAAGGCAUGGCUGAUGCUCGUGCCCUUGACAACAGAGGAUUGAGCAUCA
B18: 600660_613778_369_CDS_ENSG00000141252_ENST00000437048|human|control|control (ssRNA)
RNA: GGGAGUUCUACAGUCCGACGAUCCCGUCCAUCCUGCCCCACGUUCGUCUGACCUCUUACAACAGUUCGAAUAUUGUCAUCCAGUCUCCUUAUUUUCAGCCUAAUUUUGUUCACGACUUCGUCUAUGUUCGCCAGAGAUUGCUCCAACAGAGGAUUGAGCAUCA
B19: chr9:59476459:59476460:+_ENSMUSG00000025237_ENSMUST00000026267|mus_hu|FALSE|FALSE (ssRNA)
RNA: GGGAGUUCUACAGUCCGACGAUCUUUCAGCAUGGAGUCCUGUAUGAUAGGGAAACUGGGAGACUUGGGGAUGGGUGAAAAGAUGCUGAGGCCAGCUCGGAACUUCUUGAUGGUACCACUUGCCUUGAACCAACUGUGCCUCUUCAACAGAGGAUUGAGCAUCA
B20: chr17:35975015:35975016:-_ENSMUSG00000001525_ENSMUST00000001566|mus_mus|FALSE|FALSE (ssRNA)
RNA: GGGAGUUCUACAGUCCGACGAUCGCCACACUGUCCGGCCUGGAUGUGCACGAUUUCCCUCAUGGCUACGGUUUACUGAAAUAAUUGUUUUUGAUGGUUCCAAUGUAGGUACCGAACAAGAAAGAAAAUUAAGGUUUUUGGGGUCAACAGAGGAUUGAGCAUCA
B21: 13601314_13601434_7285_CDS_ENSG00000038219_ENST00000040738|human|control|control (ssRNA)
RNA: GGGAGUUCUACAGUCCGACGAUCGCUCACUGCCAACACGGGACCCGGUUCUUUGCCUCCCCUGACUGGCCCAGGACACCGACAGUUAUUCUCAGCAAUUAGGCUGGGCAUGGGGACCUUGUGCUUGCUCACUUCUGUGGCUGACAACAGAGGAUUGAGCAUCA
B22: chr11:100882373:100882374:+_ENSMUSG00000019302_ENSMUST00000044721|mus_mus|mus_mus_mus_hu_True|1_1 (ssRNA)
RNA: GGGAGUUCUACAGUCCGACGAUCUUCCUGGUUUGUGUUGAUUUCCUUCAGUUCAUUUUCAAUCUUCUCAAAAUUGGCCUCUAAGUCAAUCAUGUCCCGGGGGAAGGGAACCUCUGGGUUUUCACCGGUGUCCAUAAUUGGGAUCAACAGAGGAUUGAGCAUCA

These binders were tested against T1, UNK ZnF1-3 (assay: nsRBNS (natural sequence RNA bind-n-seq); RBNS binding buffer (assumed for nsRBNS): 25 mM Tris pH 7.5, 150 mM KCl, 3 mM MgCl2, 0.01% Triton X-100, 500 ug/ml BSA, 20 U/ml SUPERase-In, 4 C; UNK is unkempt and MSI1 is Musashi-1; names of the RNAs are library labels; protein concentration not given here; high values mean tight binding).

Binder	binding signal [enrichment R]
B1	0.793
B2	0.816
B3	1.91
B4	1.3
B5	0.684
B6	1.34
B7	0.344
B8	2.24
B9	1.16
B10	0.659
B11	1.79
B12	1.13
B13	2.28
B14	1.64
B15	0.829
B16	0.546
B17	0.719
B18	0.758
B19	1.19
B20	1.46
B21	1.02
B22	0.641
